Experimental data as given in PMC12136788.
The list shows a part of the results.

T1: UNK ZnF1-3 (human, UniProt Q9C0B0 31-174)
T1 sequence: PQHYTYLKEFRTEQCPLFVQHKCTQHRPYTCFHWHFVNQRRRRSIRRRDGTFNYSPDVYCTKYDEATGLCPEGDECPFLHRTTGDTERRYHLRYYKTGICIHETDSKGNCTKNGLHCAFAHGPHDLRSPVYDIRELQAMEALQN

B1: chr3:148802587:148802588:-_ENSG00000071794_ENST00000310053|hu_mus|hu_hu_hu_mus_False|48_108 (ssRNA)
RNA: GGGAGUUCUACAGUCCGACGAUCUCCAACCACAUGACCUCUCAUAGUUCCAAAUAAAACCAAAUCUUGCUCUUCAUCACUCGUUAGAAAGUCAUCUGGAGGAAUAAUGUCUUGGAAUUCAAAAUGUGGCAAGAAAGUUGAGUACAACAGAGGAUUGAGCAUCA
B2: chr4:104905227:104905228:+_ENSMUSG00000028517_ENSMUST00000064139|mus_hu|motif|central (ssRNA)
RNA: GGGAGUUCUACAGUCCGACGAUCACAAAAUGGAACCUUACAAAAAUACUGACAAUUUAAUGUUUUUAUACAGUUUUCUCGGGUUGCAGUUAUUUCAUUAUAAAACAAUGUCUACCACAGAACUAUGAUAUUUUAGUUGAUAUUCAACAGAGGAUUGAGCAUCA
B3: chr11:86518203:86518204:-_ENSMUSG00000047126_ENSMUST00000103186|perfect_dup|motif|central (ssRNA)
RNA: GGGAGUUCUACAGUCCGACGAUCGAACAGCUCCAGGUGCUCCCUCAUUUUCUGAGGCUUAAAUUUAGAGUAUAGAAUAGCGGAUUCAGUAAACAUUCCCAUGUGAGCUCGCUCAAGUCCCAGUGCUGCUUCCAACAUGGUGAUCAACAGAGGAUUGAGCAUCA
B4: chr16:94690422:94690423:+_ENSMUSG00000040785_ENSMUST00000117648|mus_hu|motif|central (ssRNA)
RNA: GGGAGUUCUACAGUCCGACGAUCUGUGACCAGAAUUCAUGGUUCUAUAUUUACCACUGUCUAAAAGUCACAAAACAAUAUCGGAUUUUUUCAUGGUUUCUAAUGCAGUUACAGUUUUGUUCUUAGGUCACAGUACAAGACUGCCAACAGAGGAUUGAGCAUCA
B5: chr1:38489359:38489360:+_ENSG00000183520_ENST00000537711|hu_hu|motif|central (ssRNA)
RNA: GGGAGUUCUACAGUCCGACGAUCUAGUUAUGGUUACAAACCGGAAAACCAUGCCAUUUGGAGUAAUGGAAUUUGAAGUUACGGGAAAACGACAACAGAUUUUUGAUACAGAAUGACAAGGCUUAUCUAUAACACGUCAACGUUCAACAGAGGAUUGAGCAUCA
B6: 37437324_37437444_4351_3pUTR_ENSMUSG00000026915_ENSMUST00000028279|mouse|control|control (ssRNA)
RNA: GGGAGUUCUACAGUCCGACGAUCUAAGUGGAAUUUUCAUUACAAAAUGAAGGGUGGGACGGGCAAAAGGUGGGAGGACACUUAAUUCAUUACAGAAUUUAAACAAUUGAACUUGCAUGGUUACCACUUCUAACAUAGGGUCAACAACAGAGGAUUGAGCAUCA
B7: 80378380_80380382_1460_CDS_ENSMUSG00000027002_ENSMUST00000028386|mouse|control|control (ssRNA)
RNA: GGGAGUUCUACAGUCCGACGAUCCUCAGCAAUGUGCUUAUCUAUAAAGUCAUCUGCACUCUUCUUUGGCAUGUUGUCCGCGUGACGGAGCAGCCAGAUAAUUUCAUCACGGGCAAAAGAUAACGCCAUGAAAACAAAAAGUGCCAACAGAGGAUUGAGCAUCA
B8: chr7:91631701:91631702:+_ENSG00000127914_ENST00000356239|hu_hu|motif|central (ssRNA)
RNA: GGGAGUUCUACAGUCCGACGAUCUUCAUUUAGCUGAAUACAUUGUUGUUUGAGGUCCUCAUUUUCCUCUAUAAGUAUUUCGGUUUCUUUUUCCCACACAGAGUCUUUGGAUUUGGACUUAAUGGAGUCUAAGAAAAUCAAUCUCAACAGAGGAUUGAGCAUCA
B9: chr3:150289932:150289933:+_ENSG00000144895_ENST00000460851|hu_hu|hu_hu_hu_mus_False|8_18 (ssRNA)
RNA: GGGAGUUCUACAGUCCGACGAUCCUUGUAGUUUUUAACAUCCCAUACUUCCAUUUGUCCUCGAAGAUUUCCAAAUCCAGCCAGCACUAAUAUAUGUCCAUGAGGGCUAUAGAAGGCUGCAUUACGAGGACCAGUUCCAAAGUCCAACAGAGGAUUGAGCAUCA
B10: chr10:112362630:112362631:-_ENSMUSG00000074748_ENSMUST00000099276|mus_hu|FALSE|FALSE (ssRNA)
RNA: GGGAGUUCUACAGUCCGACGAUCAUGGACUACUUAUGCAAAAAUAAAAAUCUCCAAAACAAAGGACAGUGGUGAGCUUCACUACCCUCCCCCGAUGAUCCCAGCAUGCGAUAAUGCCAGGCAGUGGUCCCUGGGCAUGCGAUGCAACAGAGGAUUGAGCAUCA
B11: chr1:58468927:58468928:-_ENSMUSG00000026034_ENSMUST00000148330|mus_mus|mus_mus_mus_hu_False|18_108 (ssRNA)
RNA: GGGAGUUCUACAGUCCGACGAUCAAUCUAUAAUUACGAUGUUCAUUACCUUAGCUAUGUACUUAAUGAACCAAAUUACCCAAACAAAAUAAACAUGGCAAUAUAAAAAUGUUAAGAAAAUAACUUACUGUACAAAAUAACUUACAACAGAGGAUUGAGCAUCA
B12: chrX:102930994:102930995:-_ENSG00000123562_ENST00000441076|hu_mus|FALSE|FALSE (ssRNA)
RNA: GGGAGUUCUACAGUCCGACGAUCAUAAGCCCUGUUUUACACUGACAGUUUUAAAGAACAUCAAUUAUACCAUGAAAGGACUAAACAGAAGUGUUUACAGAUACCAGACAAUAGUGAGCGGUCAGUAGACCUUCACAGGGCUUUCAACAGAGGAUUGAGCAUCA
B13: chr1:150923288:150923289:+_ENSG00000143379_ENST00000271640|hu_mus|motif|central (ssRNA)
RNA: GGGAGUUCUACAGUCCGACGAUCCAAACAGAACAUCUCCAGGAACAGAAAGUCACAGCCAGUCUCAAAAAGGUAGCGCUCGGUCUCCUGCAUCGUCCGAAGGCAGAGACCACAGGGUGUCUUAUAGAUUACAUGAAAGCCCAUCAACAGAGGAUUGAGCAUCA
B14: chr15:30001172:30001173:-_ENSG00000104067_ENST00000400011|hu_hu|FALSE|FALSE (ssRNA)
RNA: GGGAGUUCUACAGUCCGACGAUCUGGUGGUCUGAAAGUUGCUGGCUUAUUCUGAGAUGGAGGUGGGUCUGGUUUGGACACUAAGGAAUUCUGAAAAUCCAAUGACACUGAAUUACCUUCACCAUGUGCUCCCUUAGAAUGUAUCAACAGAGGAUUGAGCAUCA
B15: chr11:46784615:46784616:-_ENSG00000175216_ENST00000415402|hu_mus|FALSE|FALSE (ssRNA)
RNA: GGGAGUUCUACAGUCCGACGAUCCUCAGUAAGAUGAUACUCUUCCUCACUCAGCAGGGUGAAAAGCAAUUUUAAAUAUUCCAGUGCUUUCAUUAGAACGCUUGUAUUGGUGUCGAAAAACCGGAGGGUAAGCCAUUUUAAGAUCAACAGAGGAUUGAGCAUCA
B16: chr1:171492454:171492455:+_ENSG00000117523_ENST00000367742|hu_hu|FALSE|FALSE (ssRNA)
RNA: GGGAGUUCUACAGUCCGACGAUCAUCAGCUUCAGCAUCUAGGUUAUCAAAUUUAUCAAGCUCCUUCAGUUCUGAUGCACUAAGAAUGGAUGGGCGUUCAGGCUCAGAGGCCCAUGAAGGAGGUGGGCCUCUUCCUCGAAGGCCCAACAGAGGAUUGAGCAUCA
B17: chr1:39494564:39494565:+_ENSG00000168653_ENST00000372967|hu_hu|hu_hu_hu_mus_True|18_78 (ssRNA)
RNA: GGGAGUUCUACAGUCCGACGAUCAUGCAUUCGCCUCAUCGUUUUGUACCGAAGCAAACACUCUACGAAGUCAUCGAACUCUAUCUUGCACUCCUUUUUCGCCCGGGUCCCACCGAUUCCAUGUGCACACUCUAUCCACUCUUUCAACAGAGGAUUGAGCAUCA
B18: chr16:94664741:94664742:+_ENSMUSG00000040785_ENSMUST00000117648|mus_hu|mus_mus_mus_hu_False|18_58 (ssRNA)
RNA: GGGAGUUCUACAGUCCGACGAUCUGGUACUGAUCUUGGUAGCUGAUAUUCAGGAGAAAGGCUGGCCAAGGGUGUAUAAAUGCUAGUGUACUGGGGCAAACCUGGUAACACGUUUAUGUACGCUGGUGGUGUCUGGGUGAUAUCCAACAGAGGAUUGAGCAUCA
B19: chr4:17845017:17845018:+_ENSG00000109805_ENST00000514176|hu_mus|hu_hu_hu_mus_False|48_98 (ssRNA)
RNA: GGGAGUUCUACAGUCCGACGAUCGCUCUCUUAACUUGAUCUUCAUUUAAGGAACUCUGCAAGGUUAAGUUUACUUUUCUGUAGCGCGCGGUUUUGGGCUCGUCUGGGUAAUCUCAUCUUCAUUUCUGAUGGUGGUUCAUGAUCCAACAGAGGAUUGAGCAUCA
B20: 29043882_29044002_1640_3pUTR_ENSMUSG00000076431_ENSMUST00000067230|mouse|control|control (ssRNA)
RNA: GGGAGUUCUACAGUCCGACGAUCCGAGGCUGCGCGUAGGCUGGCGUAGCCGCGGUGGUCAGCGGGCGAUCGGCUGGCGGCUGGCGAUGAUGCUGCGCUGCUGCGGCCGCUCAGACUCCGGCCAUCGGGCGAGCAUCCCGGGCCCAACAGAGGAUUGAGCAUCA
B21: 62931016_62931474_2432_CDS_ENSG00000061987_ENST00000546600|human|control|control (ssRNA)
RNA: GGGAGUUCUACAGUCCGACGAUCCAAGACAAGUUGCCAUGAUGUUCCAAGAACAGCCCCAUGGCAAUGCGCCAAGUUAAGUAAAGUCCUCAUACACUGGAUAUUUUUGGAAGUCAGCAUUACUGUCCCUUGAGGCUGGACUGCCAACAGAGGAUUGAGCAUCA
B22: chr11:31958201:31958202:+_ENSMUSG00000020297_ENSMUST00000020537|mus_hu|FALSE|FALSE (ssRNA)
RNA: GGGAGUUCUACAGUCCGACGAUCCAUCUUGCAAAAUGCACCAGAGGCCAGCACAUUUCACUAUGGGUUAUGUGCGUUCUGGGCUUAGUAAUGCCAAAAUCAGCUCUUCUCUCCAGCUCGGCCAUUCCUCAUUUCCUGCGGGCCCAACAGAGGAUUGAGCAUCA

Biological target: T1, UNK ZnF1-3
Test: nsRBNS (natural sequence RNA bind-n-seq); RBNS binding buffer (assumed for nsRBNS): 25 mM Tris pH 7.5, 150 mM KCl, 3 mM MgCl2, 0.01% Triton X-100, 500 ug/ml BSA, 20 U/ml SUPERase-In, 4 C; UNK is unkempt and MSI1 is Musashi-1; names of the RNAs are library labels; protein concentration not given here; high values mean tight binding

Point of comparison: B16, binding signal 1.1 enrichment R. Against it:
- B1 — higher, 1.38 enrichment R
- B2 — lower, 0.884 enrichment R
- B3 — lower, 0.775 enrichment R
- B4 — lower, 0.223 enrichment R
- B5 — higher, 1.28 enrichment R
- B6 — higher, 1.74 enrichment R
- B7 — higher, 1.2 enrichment R
- B8 — lower, 0.446 enrichment R
- B9 — lower, 0.991 enrichment R
- B10 — higher, 1.24 enrichment R
- B11 — higher, 1.32 enrichment R
- B12 — higher, 1.21 enrichment R
- B13 — higher, 1.33 enrichment R
- B14 — lower, 1.09 enrichment R
- B15 — higher, 1.29 enrichment R
- B17 — lower, 0.651 enrichment R
- B18 — lower, 0.989 enrichment R
- B19 — lower, 0.35 enrichment R
- B20 — lower, 0.476 enrichment R
- B21 — lower, 0.548 enrichment R
- B22 — higher, 1.12 enrichment R
